Source: patent US8114619B2, “Methods for diagnosis and optimizing treatment of multiple sclerosis” (The Johns Hopkins University, priority 2006, dated 2012)
At least one read-out could not be matched to a standard name with certainty.

Test system: rat mixed hippocampal cultures
Experiment: in vitro neuroprotection assay against 3-NP, MTT viability
Conditions: for % Protection vs 3NP: increase in cultured neuron viability in the presence of 3-nitropropionic acid (Table 6); for % Protection: vs 3-NP, increase in cultured neuron viability in the presence of 3-nitropropionic acid (Table 5)
From the text: 5, 2007. In Tables 5 and 6 “% Protection vs 3-NP” refers to the increase in cultured neuron viability in the presence of the oxidative stressor 3-nitropropionic acid. For details of the assay, see Example 3 below.
We sought to evaluate the protective efficacy of a number of modified terpenoid compounds against the against many different neurotoxins, ranging from the chemotoxic 6-OHDA, NMDA, 3-nitropropionic acid (3-NP), and viral proteins such as Tat and gp120. Thus, we established an in vitro neuroprotection assay using rat mixed hippocampal cultures, in which we evaluated the protective efficacy of neuroprotective compounds disclosed herein. The oxidative stressor 3-NP was used to elicit toxicity in the rat hippocampal cultures to mimic the oxidative damage, reactive oxygen species production and ensuing neurodegeneration resulting from HIV infection. Another measure of neurotoxicity which results from HIV infection was evaluated by exposure of the hippocampal cultures to HIV-1 Tat (Li et al (2005), Neurotox Res, 8(1-2):119-134).
Rat mixed hippocamal neuronal cultures were generated from freshly dissected rat hippocampi (embryonic day 18) in neurobasal media containing 5% fetal bovine serum and 2% B27 supplement. The cells were plated into 96 well plates at a density of 4×10^5 cells/mL and routinely used on days 11-14 following culturing. Cell viability was assessed with MTT [3-(4,5-dimethylthiazol-2-yl)-2,5-diphenyltetrazolium bromide] assay. The MTT assay is based on the ability of a mitochondrial dehydrogenase enzyme from viable cells to cleave the tetrazolium rings of the pale yellow MTT and form dark blue formazan crystals. See Mosmann (1983), J Immunol Methods, 65(1-2):55-63. These crystals are largely impermeable to cell membranes, and thus accumulate within healthy cells. The resultant formazan precipitates are solubilized with DMSO and read on a multiwell scanning spectrophotometer (ELISA reader). The number of surviving cells is directly proportional to the level of the formazan product created.
Mixed hippocampal cultures were incubated with 3-NP (0.5-10 mM) for 18 hours and then assessed for viability using an MTT assay.
Cultures were preincubated with GPI 1046 or Resveratrol for one hour prior to an 18 hour exposure to 3 mM 3-NP. […] The same neuroprotective compounds were evaluated for efficacy against HIV-1 Tat protein toxicity using the same 1 hour preincubation protocol.

| SMILES | % Protection vs 3NP | % Protection |
| --- | --- | --- |
| OC(Cn1cncn1)(Cn1cncn1)c1ccc(F)cc1F [FLUCONAZOLE, reference compound] | 13.35% |  |
| C=C1C2CC[C@]3(C)[C@@H](c4ccoc4)OC(=O)C[C@]13O[C@H]1CC(O)C(C)(C)C(CC(=O)OC)[C@@]21C (stereo partly drawn) [3alpha-HYDROXY-3- DEOXY[…] METHYL ESTER] |  | 35% |
| CC(=O)O[C@@H]1CC2C(C)(C)C(=O)C=C[C@]2(C)C2CC[C@@]3(C)C(=CC(=O)O[C@@H]3c3ccoc3)[C@@]21C (stereo partly shown) [DEOXYGEDUNIN] |  | 23% |
| CC(=O)N1CCN(c2ccc(OCC3COC(Cn4ccnc4)(c4ccc(Cl)cc4Cl)O3)cc2)CC1 (stereo not shown) [KETOCONAZOLE, reference compound] | 20.93% |  |
| CC(=O)OC1C[C@H](OC(C)=O)[C@@]2(C)C(CC(OC(C)=O)[C@]3(C)C2CC[C@@]2(C)[C@H](c4ccoc4)OC(=O)[C@H]4O[C@@]432)C1(C)C (stereo partly shown) [KHIVORIN] |  | 70% |
| CC1(C)C2CC(=O)[C@]3(C)C(CC[C@@]4(C)[C@H](c5ccoc5)OC(=O)[C@H]5O[C@]543)[C@@]2(C)C=C[C@@H]1O (stereo partly drawn) [3beta- HYDROXYDEOXYDESACETOXY- 7-OXOGEDUNIN] |  | 30% |
| CCCCCCOc1ccccc1C(N)=O [EXALAMIDE, reference compound] | 9.19% |  |
